Data: the supplement of paper PMC10369915
The other results are listed elsewhere or left out. Cut-off read from the data, not from the text of the source: active = 3.2 or more and inactive = the rest. Only a few entries rise above the background.

B1: MATR3_Y784_YF (peptide)
chain: FRIGPYQPNVP
B2: MAVS_Y92_Q93E (peptide)
chain: EVASVYESYQP
B3: MAVS_Y92_YF (peptide)
chain: EVASVYQSFQP
B4: MAX_Y115 (peptide)
chain: QLQTNYPSSDN
B5: MAX_Y70_I71S (peptide)
chain: DKATEYSQYMR
B6: MAX_Y70_I71S_YF (peptide)
chain: DKATEYSQFMR
B7: MAX_Y70_YF (peptide)
chain: DKATEYIQFMR
B8: MAX_Y73_M74V_YF (peptide)
chain: TEFIQYVRRKN
B9: MAX_Y73_YF (peptide)
chain: TEFIQYMRRKN
B10: MBD1_Y403 (peptide)
chain: GSPPPYRRRKR
B11: MC4R_Y35_D37V (peptide)
chain: SLGKGYSVGGC
B12: MC4R_Y35_S36Y (peptide)
chain: SLGKGYYDGGC
B13: MC4R_Y41_D37V (peptide)
chain: SVGGCYEQLFV
B14: MCCC1_Y41 (peptide)
chain: QRTMKYTTATG
B15: MCCC2_Y196_R193C (peptide)
chain: FGCTFYNQAIM
B16: MCCC2_Y520 (peptide)
chain: EEGNPYYSSAR
B17: MCCC2_Y520_A524T (peptide)
chain: EEGNPYYSSTR
B18: MCCC2_Y520_A524T_YF (peptide)
chain: EEGNPYFSSTR

These binders were tested against SHP2 C-SH2 domain E139D (assay: enrichment score (SH2-bound / input frequency) (ratio); bacterial display of known human phosphotyrosine sites (pTyr-Var adds point mutants) read by sequencing; higher = stronger binding; tyrosines were phosphorylated by kinases first). Settings: peptide library: pTyr-Var.
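Note: displayed peptides selected on beads carrying the immobilized SH2 domain, with library peptides lacking any tyrosine serving as negative controls.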

Enrichment score, inactive:
B1 1.39
B2 0.84
B3 0.858
B4 0.672
B5 0.623
B6 0.755
B7 0.914
B8 0.129
B9 0.215
B10 0.311
B11 0.633
B12 0.871
B13 0.994
B14 0.903
B15 1.03
B16 0.445
B17 0.496
B18 0.485

What follows are binders tested against SHP2 C-SH2 domain wild-type in the same assay as above. Settings: peptide library: pTyr-Var.

Enrichment score, inactive:
B1 1.44
B2 0.911
B3 0.768
B4 0.644
B5 0.834
B6 0.661
B7 0.771
B8 0.175
B9 0.197
B10 0.298
B11 0.736
B12 0.952
B13 1.12
B14 1.01
B15 1.5
B16 0.453
B17 0.732
B18 0.519

Each binder was assayed against SHP2 N-SH2 domain L43F in the same assay as above. Settings: peptide library: pTyr-Var.

Enrichment score, inactive:
B1 1.47
B2 0.834
B3 0.968
B4 0.659
B5 0.447
B6 0.694
B7 0.948
B8 0.223
B9 0.186
B10 0.295
B11 0.612
B12 0.751
B13 0.875
B14 0.946
B15 0.988
B16 0.471
B17 0.533
B18 0.606

These binders were tested against SHP2 N-SH2 domain T42A in the same assay as above. Settings: peptide library: pTyr-Var.

Enrichment score, inactive:
B1 1.14
B2 0.879
B3 0.737
B4 0.537
B5 0.62
B6 0.619
B7 0.878
B8 0.234
B9 0.262
B10 0.275
B11 0.693
B12 0.925
B13 0.947
B14 0.749
B15 1.16
B16 0.428
B17 0.539
B18 0.546

Each binder was assayed against SHP2 N-SH2 domain T52S in the same assay as above. Settings: peptide library: pTyr-Var.

Enrichment score, inactive:
B1 1.54
B2 0.707
B3 0.847
B4 0.78
B5 0.687
B6 0.608
B7 0.807
B8 0.184
B9 0.328
B10 0.254
B11 0.537
B12 0.776
B13 0.801
B14 1.24
B15 0.89
B16 0.491
B17 0.554
B18 0.38

What follows are binders tested against SHP2 N-SH2 domain wild-type in the same assay as above. Settings: peptide library: pTyr-Var.

Enrichment score, inactive:
B1 1.27
B2 0.915
B3 1.01
B4 0.817
B5 0.676
B6 0.816
B7 0.779
B8 0.149
B9 0.297
B10 0.264
B11 0.828
B12 0.965
B13 1.47
B14 0.937
B15 1.44
B16 0.559
B17 0.625
B18 0.608
